Measurements from PubChem BioAssay AID1347417 (National Center for Advancing Translational Sciences (NCATS), 2020).
Out of some 120,000 compounds screened, about 5,300 (4.4%) were called active. The inconclusive results got no clear call from the source; some entries with a clear call stand among them for comparison. Calls come from the whole dose curve; as a rule, active = well fitted inhibition curve with a large enough effect; inconclusive = small, poorly fitted or top-dose-only effect; inactive = no such curve, though single readings can be large or run the other way. A potency beside an inconclusive call is a rough fit, not a confirmed value.

Assay: qHTS Primary assay for Inhibitors of Plasmodium falciparum Dd2 growth in vitro; note: nearly all actives have a fitted effect of over 65% in size
Conditions: P. falciparum Dd2 growth, SYBR Green, 72 h; series mostly up to 28.9 µM
Outline: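 Readout: SYBR Green fluorescence, 485 nm excitation, 535 nm emission, after ~16 h lysis at 37C. Before that, Dd2-infected red cells (2.5% hematocrit) grew 72 h with compound, 29 uM top final concentration.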
Potency is the fitted concentration of half-maximal effect; tags give direction and shape of the fitted curve.

Row | SMILES | Potency
1 | Cc1nc2c(c(-c3ccc(O)cc3)n1)CN(Cc1ccc(OC(F)(F)F)cc1)CC2 | inactive
2 | CCOc1ccc(-n2cc(-c3ccccc3)c3c(NCCc4ccccc4)ncnc32)cc1 | inconclusive: 17.8 µM [inhibitor, single point]
3 | Cc1ccc(Nc2ccc3cc(S(=O)(=O)N4CCC(C)CC4)ccc3n2)c(Cl)c1 | inconclusive: 12.6 µM [inhibitor, single point]
4 | CCOC(=O)N1CCc2c(sc3c2c(=O)n(Cc2ccccc2)c(=O)n3CC(=O)Nc2cccc(CC)c2)C1 | active: 7.08 µM
5 | COCC1CN(C2CCC2)CC12CCN(C(=O)C1(c3ccccc3)CC1)CC2 (stereo not drawn) | inconclusive: 6.31 µM [inhibitor, partial curve, poor fit]
6 | CCOC(=O)c1ccc(NC(=O)Cn2nc3c4ccccc4n(Cc4cccc(F)c4)cc-3c2=O)cc1 | inconclusive: 17.8 µM [inhibitor, single point]
7 | O=C(NCCc1ccccc1)N1CCCC(c2nc(C3CCOCC3)no2)C1 (stereo not drawn) | inactive
8 | O=C(N[C@H]1CCN2C(=O)c3cc(-c4cccs4)ccc3NC(=O)[C@H]12)C1CCCC1 | inconclusive: 31.6 µM [inhibitor, single point]
9 | CC(=O)Nc1ccc(NC(=O)c2oc3c(c2C)-c2nn(Cc4ccccc4Cl)cc2CC3)cc1 | inconclusive: 17.8 µM [inhibitor, single point]
10 | CC(C)n1cnnc1CC1CCN(C(=O)c2nn(C)c3ccccc23)C1 (stereo not drawn) | inconclusive: 3.98 µM [inhibitor, single point]
11 | CCCCC(=O)Nc1ccc2nc(SCC(=O)N3CCc4ccccc43)sc2c1 | inconclusive: 11.2 µM [inhibitor, partial curve]
12 | CCc1ccc2nc(N(Cc3cccnc3)C(=O)c3ccc(C#N)cc3)sc2c1 | active: 8.91 µM
13 | Cn1ccc2c(C(=O)NCC3CCC(=O)N3)nc(-c3ccccc3O)cc21 (stereo not drawn) | inactive
14 | COCC1CN(C(C)=O)CC12CCN(S(=O)(=O)c1cc(C)ccc1C)CC2 (stereo not drawn) | inactive
15 | Cc1ccc(N2CCN(C(=O)c3nn(C)c4c3CS(=O)(=O)c3ccccc3-4)CC2)c(C)c1 | inactive
16 | Cc1noc(C)c1-c1cc2c(c(-c3cnn(C)c3)c1)C(=O)N(C)C2 | inconclusive: 35.5 µM [inhibitor, single point]
17 | CCC1CCN(CC2(O)CCCN(Cc3cc(OC)ccc3F)C2=O)CC1 (stereo not drawn) | inconclusive: 1.12 µM [inhibitor, partial curve, poor fit]
18 | COc1ccccc1CN1CCOCC2(C1)CN([S+](=O)([O-])c1ccccc1)C2 | inconclusive: 0.631 µM [inhibitor, partial curve]
19 | COc1ccc(C(=O)c2c(N)c(-c3nc(-c4ccc5c(c4)OCO5)cs3)c3ccccn23)cc1 | inactive
20 | CCCCC(=O)Nc1ccc2nc(SCC(=O)N3CCOCC3)sc2c1 | inconclusive: 17.8 µM [inhibitor, single point]
21 | CCOc1ccc(NC(=O)CN2CCN(CC(=O)Nc3ccc(N(CC)CC)cc3)CC2)cc1 | inconclusive: 17.8 µM [inhibitor, single point]

Row | SMILES | Potency
22 | COc1cccc2c1Oc1ncccc1N(c1ccc(C(=O)NCc3ccccc3C)s1)C2 | inconclusive: 17.8 µM [inhibitor, single point]
23 | CN(C)c1ccc(NC(=S)N[C@H]2CO[C@H]3[C@@H]2OC[C@H]3OC(=O)Nc2cccc3ccccc23)cc1 | inconclusive: 5.01 µM [inhibitor, partial curve]
24 | COc1cc2c(cc1OCc1ccccc1)NC(=O)C21CCN(c2ccccn2)CC1 | inconclusive: 0.316 µM [inhibitor, full curve, poor fit]
25 | CCCC1=Nc2cc(C(=O)NCCc3ccc(OC)c(OC)c3)ccc2Sc2ccccc21 | inconclusive: 11.2 µM [inhibitor, partial curve, poor fit]
26 | C=CCNC(=O)NC[C@H]1C[C@@H]2CCN1C[C@@H]2c1cc(C(CC)CC)nc(-c2ccncc2)n1 | inconclusive: 1.58 µM [inhibitor, partial curve, poor fit]
27 | O=C1CCN(Cc2ccc3c(c2)CCO3)CCOCCN1 | inactive
28 | CCc1noc(-c2cccn3c(CNC(=O)COc4ccc(F)cc4)nnc23)n1 | active: 0.708 µM
29 | O=C(CCc1c[nH]c2ccccc12)N1CCC(N2CC3CC(C2)[C@H]2CCCC(=O)N2C3)CC1 (stereo partly drawn) | inconclusive: 20 µM [inhibitor, single point]
30 | Cc1c(-c2cc(C(=O)N3CC[C@](C)(O)[C@@H](O)C3)no2)cnn1C | inactive
31 | CC1=Nc2cc(C(=O)NC3CCCCC3)ccc2Sc2ccc(Cl)cc21 | inconclusive: 12.6 µM [inhibitor, single point]
32 | COc1ccc(C(=O)N2CCc3nn(Cc4ccccc4)c(=O)n3CC2)cc1F | inconclusive: 1.58 µM [inhibitor, full curve, poor fit]
33 | COc1ccccc1N1CCN(C(CNC(=O)C(=O)NCCN(C)C)c2cccnc2)CC1 (stereo not drawn) | inactive
34 | Cc1ccc(OC(=O)N2CCC(Oc3ccc4c(cnn4CCC(=O)O)c3)CC2)cc1 | inconclusive: 31.6 µM [inhibitor, single point]
35 | COc1ccc(-n2c(=O)c3c(n2Cc2ccccc2)CN(Cc2ccc(F)cc2)CC3)cc1 | inconclusive: 3.98 µM [inhibitor, single point]
36 | O=C(N[C@H]1CO[C@H]2[C@@H]1OC[C@@H]2n1nnnc1-c1ccc2c(c1)OCO2)C1CC1 | inactive
37 | O=C(Cc1cccc(C(F)(F)F)c1)N1CCCc2ncc(C(=O)N3CCCC[C@@H]3Cc3ccccc3)cc21 | active: 11.2 µM
38 | Cc1ccc(-c2cn3c(n2)N(S(C)(=O)=O)CCC3)cc1 | inconclusive: 7.94 µM [inhibitor, single point]
39 | CCCOc1ccc(C2C(=O)N(C3CCCCC3)CC(=O)N2CCc2ccccc2)cc1OC (stereo not drawn) | inconclusive: 17.8 µM [inhibitor, single point]
40 | O=C(NCc1cccc(F)c1)c1csc(N2CCN(c3ccc(Cl)cc3)CC2)n1 | inconclusive: 10 µM [inhibitor, single point]
41 | COc1ccc2[nH]c3c(c2c1)CCNC31CCN(C(=O)c2ccc(OC)nc2OC)CC1 | inconclusive: 12.6 µM [inhibitor, single point]
42 | CCC(=O)N1CCN(c2nc3c(s2)CC(C(=O)Nc2ccc(F)cc2C)CC3)CC1 (stereo not drawn) | inconclusive: 17.8 µM [inhibitor, partial curve, poor fit]

Row | SMILES | Potency
43 | O=C(c1ccc2nccnc2c1)N1C[C@H]2CC[C@@H]1CN(C1CCOCC1)C2 | inactive
44 | Cc1ccccc1CN1CCCC12Cc1ccccc1CNC2=O (stereo not drawn) | inconclusive: 11.2 µM [inhibitor, single point]
45 | COc1ccc(CC(=O)N2Cc3ccccc3CC3(CCN(CC4CCNC4)C3)C2)cc1 (stereo not drawn) | inconclusive: 17.8 µM [inhibitor, single point]
46 | CCCn1c(C)cnc1CC1CCCN(C(=O)c2ccc(OC)cc2)C1 (stereo not drawn) | inconclusive: 7.08 µM [inhibitor, partial curve, poor fit]
47 | CCc1cc(N2CCOC(c3ccc4cc(OC)ccc4c3)C2)nc(C)n1 (stereo not drawn) | inactive
48 | O=C(NCCc1ccc(Cl)cc1)c1nc(-c2ccsc2)c2ccccn12 | inconclusive: 11.2 µM [inhibitor, partial curve]
49 | O=C1Nc2ccccc2OCC12CCN(Cc1cccs1)CC2 | inconclusive: 22.4 µM [inhibitor, single point]
50 | CCc1cccc(NC(=O)c2cc3c(=O)[nH]c4ccccc4c3n2C)c1 | inconclusive: 2 µM [inhibitor, full curve, poor fit]
51 | COc1cccc(CCC2CCCN(C(=O)c3ccc(OC)o3)C2)c1 (stereo not drawn) | inactive
52 | Cc1ccc(C)c(CSC2=NC(C)(C)Nc3ccccc32)c1 | inconclusive: 17.8 µM [inhibitor, single point]
53 | CCOC(=O)c1sc2nc(C)n(CC(=O)Nc3cccc(Cl)c3)c(=O)c2c1C | inactive
54 | COc1ccc(C(=O)N2CCC3(C2)C(=NC2CCCC2)NC(=O)N3c2cccc(OC)c2)cc1 (stereo not drawn) | inconclusive: 10 µM [inhibitor, partial curve, poor fit]
55 | CC(C)c1nc2c(c(-c3ccc(O)cc3)n1)CN(Cc1cccc(F)c1)CC2 | inconclusive: 1.41 µM [inhibitor, full curve, poor fit]
56 | O=C1NCc2ccccc2CC12CCCN2CC1CC=CCC1 (stereo not drawn) | inconclusive: 7.08 µM [inhibitor, partial curve]
57 | Clc1ccc(Nc2c(-c3cccs3)nc3ccc(Cl)cn23)cc1 | inconclusive: 20 µM [inhibitor, single point]
58 | O=C(CCS(=O)(=O)c1ccccc1)N(Cc1cccnc1)c1nc2c(Cl)cccc2s1 | inconclusive: 14.1 µM [inhibitor, single point]
59 | O=C(NCCCN1CCN(c2ccc(F)cc2)CC1)C1COc2ccccc2C1 (stereo not drawn) | inconclusive: 7.08 µM [inhibitor, partial curve]
60 | CCc1ccc(NC(=O)c2ccc3c(=O)n4nc(Nc5ccccc5C)sc4nc3c2)cc1 | inconclusive: 17.8 µM [inhibitor, single point]
61 | COc1ccc(Cl)cc1NC(=O)Cn1c(=O)n(Cc2nc(C)no2)c(=O)c2ccccc21 | inconclusive: 8.91 µM [inhibitor, partial curve, poor fit]
62 | Cc1ccc(S(=O)(=O)N2C[C@@H](F)C[C@H]2C(=O)N2CCCCC2)c(C)c1 | inactive
63 | CCOC(=O)c1c(C)oc2nc(C)nc(N(CC(C)C)CC(C)C)c12 | active: 10 µM
